{"source": "paper PMC4336329", "about": "(PLoS ONE, 2015)", "note": "Among all 310,000 compounds or so, about 14,000 (4.5%) showed an effect of 50% or more. Effects have a minus sign here. Some of the results follow.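 Also: peak tail current of the secondary pulse compared with the same well before compound.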"}
{"target": "human ether-à-go-go-related gene (hERG) potassium channel (human, UniProt Q12809)", "sequence (Q12809 whole entry, looked up)": "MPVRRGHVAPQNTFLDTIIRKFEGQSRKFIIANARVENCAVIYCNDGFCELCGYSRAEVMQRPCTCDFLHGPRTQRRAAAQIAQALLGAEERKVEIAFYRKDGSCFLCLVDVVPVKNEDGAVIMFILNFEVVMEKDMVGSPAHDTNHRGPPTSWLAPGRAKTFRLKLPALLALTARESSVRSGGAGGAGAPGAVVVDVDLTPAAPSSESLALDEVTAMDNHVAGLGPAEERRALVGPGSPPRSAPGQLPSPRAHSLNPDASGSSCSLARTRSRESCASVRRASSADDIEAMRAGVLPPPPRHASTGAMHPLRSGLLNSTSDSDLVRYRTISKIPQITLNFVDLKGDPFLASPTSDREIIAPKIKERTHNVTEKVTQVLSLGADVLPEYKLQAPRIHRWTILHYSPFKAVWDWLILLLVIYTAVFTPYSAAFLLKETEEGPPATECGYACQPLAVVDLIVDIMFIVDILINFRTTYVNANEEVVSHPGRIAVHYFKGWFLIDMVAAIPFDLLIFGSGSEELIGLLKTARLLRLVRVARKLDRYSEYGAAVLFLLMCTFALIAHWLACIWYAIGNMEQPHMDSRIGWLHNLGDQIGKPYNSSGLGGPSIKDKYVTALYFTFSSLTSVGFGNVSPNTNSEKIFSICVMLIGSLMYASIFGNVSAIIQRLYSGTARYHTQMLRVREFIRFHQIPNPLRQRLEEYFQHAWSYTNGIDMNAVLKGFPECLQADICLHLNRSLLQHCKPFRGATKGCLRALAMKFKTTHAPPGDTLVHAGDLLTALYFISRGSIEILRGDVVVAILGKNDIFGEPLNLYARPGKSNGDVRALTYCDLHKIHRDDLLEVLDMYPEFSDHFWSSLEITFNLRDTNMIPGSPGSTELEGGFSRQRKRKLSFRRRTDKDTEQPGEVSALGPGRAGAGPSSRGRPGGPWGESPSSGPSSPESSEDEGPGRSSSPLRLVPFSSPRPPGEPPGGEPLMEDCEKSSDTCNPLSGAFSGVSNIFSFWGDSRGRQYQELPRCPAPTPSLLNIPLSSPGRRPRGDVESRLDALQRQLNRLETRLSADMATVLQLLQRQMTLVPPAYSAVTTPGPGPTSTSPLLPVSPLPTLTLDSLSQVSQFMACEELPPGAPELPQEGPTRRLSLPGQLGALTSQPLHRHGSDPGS", "assay": "primary screen, population patch clamp on CHO cells stably expressing hERG", "units": {"hERG current change (%, negative = inhibition) at 10uM": "%"}}
{"smiles": "Nc1cc(C(=O)c2ccccc2)ccc1[N+](=O)[O-]", "hERG current change (%, negative = inhibition) at 10uM": -2.2}
{"smiles": "O=C(Nc1ccc(F)cc1F)N1CCN(CCc2ccccc2)CC1", "hERG current change (%, negative = inhibition) at 10uM": -15.6}
{"smiles": "CCOC(=O)c1ccc(CNC(=O)Cn2nnc(-c3ccccc3F)n2)o1", "hERG current change (%, negative = inhibition) at 10uM": -1.55}
{"smiles": "NC(=O)c1cc2cc([N+](=O)[O-])ccc2oc1=O", "hERG current change (%, negative = inhibition) at 10uM": 19.6}
{"smiles": "CN1CCN(c2nc(Nc3ccccc3)nc(N)c2[N+](=O)[O-])CC1", "hERG current change (%, negative = inhibition) at 10uM": -40.6}
{"smiles": "Cc1ccc(CSc2ncnc3c2cnn3Cc2ccccc2)cc1", "hERG current change (%, negative = inhibition) at 10uM": -4.44}
{"smiles": "Cc1ccc(S(=O)(=O)NCCc2ccncc2)cc1C", "hERG current change (%, negative = inhibition) at 10uM": 11.7}
{"smiles": "O=C(NCc1cccs1)[C@@H]1CSC2c3ccccc3C(=O)N21", "note": "(stereo partly drawn)", "hERG current change (%, negative = inhibition) at 10uM": 8.92}
{"smiles": "COc1ccc(C(=O)NCc2nnc(SCC(=O)N3CCOCC3)o2)cc1OC", "hERG current change (%, negative = inhibition) at 10uM": 13.7}
{"smiles": "CC(NC(=O)C(C)N1CCN(Cc2ccccc2)CC1)c1ccccc1", "note": "(stereo not drawn)", "hERG current change (%, negative = inhibition) at 10uM": 8.63}
{"smiles": "Cc1c(Cl)cccc1NC(=S)N(Cc1cccnc1)Cc1ccccc1Cl", "hERG current change (%, negative = inhibition) at 10uM": 9.15}
{"smiles": "O=C(Cn1cc(C(=O)C2CC2)c2ccccc21)NCC1CCCO1", "note": "(stereo not drawn)", "hERG current change (%, negative = inhibition) at 10uM": -1.95}
{"smiles": "CCNS(=O)(=O)c1ccc2c(c1)NCC2", "hERG current change (%, negative = inhibition) at 10uM": 32}
{"smiles": "COC(C[C@H]1O[C@@H]1[C@H](O)[C@H](C)OCc1ccccc1)OC", "hERG current change (%, negative = inhibition) at 10uM": 8.15}
{"smiles": "Cc1ccccc1C(=O)NCCCCc1ccccc1", "hERG current change (%, negative = inhibition) at 10uM": -0.639}
{"smiles": "Clc1ccc2[nH]c3c(c2c1)CNCC3", "hERG current change (%, negative = inhibition) at 10uM": 5.91}
{"smiles": "CC(=NC(C)C)C1=C(O)C(C)OC1=O", "note": "(stereo not drawn)", "hERG current change (%, negative = inhibition) at 10uM": 5.81}
{"smiles": "CCc1cccc(CC)c1NC(=S)NCc1nc2ccccc2[nH]1", "hERG current change (%, negative = inhibition) at 10uM": 3.09}
{"smiles": "COc1ccc(CCC(=O)Nc2ccc3c(c2)OCO3)cc1OC", "hERG current change (%, negative = inhibition) at 10uM": 9.66}
{"smiles": "Cc1ccn(CCC(=O)NC2CCCc3c2cnn3-c2cccc(C)c2C)n1", "note": "(stereo not drawn)", "hERG current change (%, negative = inhibition) at 10uM": 11.9}
{"smiles": "O=C(CSc1cccc2cccnc12)NCc1ccco1", "hERG current change (%, negative = inhibition) at 10uM": -1.16}
{"smiles": "C/C(=N/NC(=O)CCCOc1ccc(Cl)cc1Cl)c1ccc(C)o1", "hERG current change (%, negative = inhibition) at 10uM": 3.44}
{"smiles": "O=C(CCNS(=O)(=O)c1ccc(Br)cc1)Nc1cccc(F)c1", "hERG current change (%, negative = inhibition) at 10uM": 3.19}
{"smiles": "COc1cc(C(=O)N(Cc2cc3ccccc3[nH]c2=O)CC2CCCO2)cc(OC)c1OC", "note": "(stereo not drawn)", "hERG current change (%, negative = inhibition) at 10uM": -0.737}
{"smiles": "CC(=O)N1CCN(c2ccc(NC(=O)c3ccc(Cl)cc3)cc2)CC1", "hERG current change (%, negative = inhibition) at 10uM": -7.91}
{"smiles": "O=S(=O)(O)c1cnccc1Nc1cccc(C(F)(F)F)c1", "hERG current change (%, negative = inhibition) at 10uM": 5.95}
{"smiles": "C/C(=N\\N1CCN(C2c3ccccc3-c3ccccc32)CC1)c1ccncc1", "hERG current change (%, negative = inhibition) at 10uM": 9}
{"smiles": "O=C(O)CN1C(=O)C(=O)N(Cc2ccc(C(F)(F)F)cc2)C1=O", "hERG current change (%, negative = inhibition) at 10uM": 23.3}
{"smiles": "COc1ccccc1NC(=S)NC(=O)Cc1ccc(Cl)cc1", "hERG current change (%, negative = inhibition) at 10uM": 17.7}
{"smiles": "CS(=O)(=O)N1CCN(C(=O)c2cc(-c3ccccc3)nc3ccccc23)CC1", "hERG current change (%, negative = inhibition) at 10uM": -30.8}
{"smiles": "O=C(CS(=O)(=O)c1cn(Cc2cccc(F)c2)c2ccccc12)N1CCOCC1", "hERG current change (%, negative = inhibition) at 10uM": -7.38}
{"smiles": "COc1ccc(CNC(=O)CN2C(=O)CCSc3ccc(S(=O)(=O)N4CCCC4)cc32)cc1", "hERG current change (%, negative = inhibition) at 10uM": -35.3}
{"smiles": "Cc1c(NC(=O)C2CC(c3cccc(Br)c3)=NO2)c(=O)n(-c2ccccc2)n1C", "note": "(stereo not drawn)", "hERG current change (%, negative = inhibition) at 10uM": -3.39}
{"smiles": "CCCOc1ccc(C2C(C(=O)c3ccc(C)o3)=C(O)C(=O)N2Cc2ccco2)cc1OCC", "note": "(stereo not drawn)", "hERG current change (%, negative = inhibition) at 10uM": 9.65}
{"smiles": "Cn1cccc1-c1nc2ccc([N+](=O)[O-])cc2[nH]1", "hERG current change (%, negative = inhibition) at 10uM": 4.4}
{"smiles": "CCOC(=O)C1=C(C)NC(=O)CC1c1cc2c(cc1[N+](=O)[O-])OCO2", "note": "(stereo not drawn)", "hERG current change (%, negative = inhibition) at 10uM": 7.35}
{"smiles": "Cc1ccccc1NC(=S)NN1CCN(C)CC1", "hERG current change (%, negative = inhibition) at 10uM": 4.23}
{"smiles": "COc1ccc(Br)cc1/C=N/NC(=O)c1ccc2nc[nH]c2c1", "hERG current change (%, negative = inhibition) at 10uM": 22.3}
{"smiles": "O=C(CCCN1C(=O)c2ccccc2C1=O)Nc1nncs1", "hERG current change (%, negative = inhibition) at 10uM": 14.8}
{"smiles": "CC1(C)N=C(N)N=C(N)N1c1ccc(C(=O)O)cc1.Cl", "hERG current change (%, negative = inhibition) at 10uM": -16.4}
{"smiles": "Cc1cccc(CN2C(=O)N/C(=C/c3cc(C)n(-c4cc(C)ccn4)c3C)C2=O)c1", "hERG current change (%, negative = inhibition) at 10uM": 5.62}
{"smiles": "c1ccc2c(-c3ccncc3)c[nH]c2c1", "hERG current change (%, negative = inhibition) at 10uM": 7.86}
{"smiles": "COc1ccc(/C=C/c2nnc(NC(=O)C(C)C)s2)cc1", "hERG current change (%, negative = inhibition) at 10uM": 9.76}
{"smiles": "COc1ccc(C2CC(c3ccc(Cl)cc3)=NN2C(C)=O)cc1", "note": "(stereo not drawn)", "hERG current change (%, negative = inhibition) at 10uM": -23.5}
{"smiles": "Clc1ccc(OCCN2CCCCC2)c(Cl)c1.O=C(O)C(=O)O", "hERG current change (%, negative = inhibition) at 10uM": -16.2}
{"smiles": "Cc1nn(C)c(Cl)c1NC(=O)OCc1ccccc1", "hERG current change (%, negative = inhibition) at 10uM": -16.3}
{"smiles": "COc1ccc(N2C(=O)C(Cl)=C(Oc3cccc(OC)c3)C2=O)cc1", "hERG current change (%, negative = inhibition) at 10uM": 0.624}
{"smiles": "COc1ccc(OC)c(N(CC(=O)NC2CC3CCC2C3)S(=O)(=O)c2ccccc2)c1", "note": "(stereo not drawn)", "hERG current change (%, negative = inhibition) at 10uM": -59.7}
{"smiles": "COc1ccc(NC(=O)c2cc(-c3cccc(OC)c3)on2)cc1", "hERG current change (%, negative = inhibition) at 10uM": 12.4}
{"smiles": "COc1ccc(NC(=O)CCOc2ccc(C)cc2)cc1S(=O)(=O)N1CCOCC1", "hERG current change (%, negative = inhibition) at 10uM": -34.9}
{"smiles": "COc1ccccc1CNC(=O)COC(=O)CNS(=O)(=O)c1ccc(C)cc1", "hERG current change (%, negative = inhibition) at 10uM": -38.7}
{"smiles": "CC(=O)c1cccc(NC(=O)Nc2ccc3c(c2)N(C)C(=O)CS3)c1", "hERG current change (%, negative = inhibition) at 10uM": -6.23}
{"smiles": "CN(CC(=O)NCc1ccc2c(c1)OCO2)CC(=O)Nc1ccc(F)c(F)c1F", "hERG current change (%, negative = inhibition) at 10uM": -13.2}
{"smiles": "O=C(COC(=O)CNC(=O)c1ccc(Cl)cc1Cl)NC(=O)NC1CCCCC1", "hERG current change (%, negative = inhibition) at 10uM": -14.2}
{"smiles": "COCC(C)N1CCC(n2nccc2NC(=O)CCCc2ccccc2)CC1", "note": "(stereo not drawn)", "hERG current change (%, negative = inhibition) at 10uM": -15.2}
{"smiles": "Cc1nn(C)c(C(=O)N/N=C/c2cccnc2)c1Cl", "hERG current change (%, negative = inhibition) at 10uM": 16.9}
{"smiles": "COC(=O)C1=C(c2ccc(OC(F)(F)F)cc2)C[C@@H]2CC[C@H]1N2C(=O)NCC1CC1", "hERG current change (%, negative = inhibition) at 10uM": -58.6}
